The list shows a part of the results.
Tested on: T1, C. trachomatis L2/434/Bu expressing GFP (CTL2-GFP)
T1 construct: L2/434/Bu GFP intracellular growth in HeLa cells
Parameters: species or system HeLa; C. trachomatis total inclusion area by high-content imaging, normalised to DMSO
Settings: total inclusion area; 28.5 h, 10 µM; inhibitor
How it was run: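 Imaging read-out: GFP inclusions and Hoechst nuclei captured by high-content imaging after fixation. Inclusion area/number = chlamydial growth; nuclei count = host cell viability. MIC calculated per earlier method.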

In order of falling “% of control remaining” value:
1. Cc1cccc(-c2cncc(C3CCCN(C(=O)Cc4c[nH]c5ccccc45)C3)n2)c1 (stereo not drawn) [CBK286149]  124.602
2. Cc1ccc(CNC(=O)N2CCC3(CC2)OCCc2c3[nH]c3ccccc23)cc1 [CBK047121]  123.47
3. Cc1ccc(C)c(C2CCCN2C(=O)Cn2cccc(C(=O)NCc3ccccc3)c2=O)c1 (stereo not drawn) [CBK286062]  121.023
4. Cc1cc(C(=O)N2CCc3c(sc4ncnc(N)c34)C2)sc1C [CBK306420]  118.512
5. Fc1ccc2nc(Nc3nnc(-c4ccco4)o3)sc2c1 [CBK287488]  117.065
6. CN1C(=O)COc2ccccc2C/C=C/C[C@H]2CN(C(=O)C3CCC3)CC[C@H]21 [CBK292087]  114.055
7. CCC(C)NC(=O)Cn1c(C2CCCNC2)cc2cccnc21 (stereo not drawn) [CBK285085]  113.725
8. N#Cc1cnn(-c2ccc(Cl)cc2Cl)c1N [CBK086125]  112.84
9. Cc1cccc(-c2ncc(NC(=O)Cc3ccc(OC(F)(F)F)cc3)nc2-c2cccnc2)c1 [CBK037030]  112.705
10. c1ccc(N2CCN(C3CCN(Cc4ccccn4)CC3)CC2)cc1 [CBK264684G]  106.595
11. Nc1ncncc1-c1noc([C@@H]2CCCN2C2CCOCC2)n1 [CBK288932]  105.646
12. Cc1c(Cl)cccc1NC(=O)CSc1nnc(Cc2cccc3ccccc23)n1-c1ccccc1 [CBK266042]  105.124
13. Cc1noc(C)c1NC(=O)c1c(-c2ccccc2)noc1C [CBK200314]  104.346
14. O=C(Nc1ccc(NC(=O)c2cc3ccccc3o2)cc1)c1ccc(-c2ccccc2)cc1 [CBK268887]  103.979
15. Cc1cc(C)nc(-n2[nH]c(N)cc2=O)n1 [CBK270164]  100.167
16. CC(C)c1ccc(/C=C/C(=O)NCCN2CCOCC2)cc1 [CBK149631]  99.7547
17. COc1ccc2[nH]cc(C(=O)NCCn3nc(C)c(C)c3C)c2c1 [CBK281389]  98.233
18. CCOC(=O)c1ccc(/N=C2/NC(=O)/C(=C\c3ccccc3OCC(=O)O)S2)cc1 [CBK265658]  98.1882
19. C=CCn1c(Cc2csc(NC(=O)c3cccc(NC(C)=O)c3)n2)n[nH]c1=S [CBK297891]  97.374
20. O=C(CSc1nnc(-c2ccco2)o1)Nc1cccc2nsnc12 [CBK268006]  97.0153
21. Cc1ccc(-c2cnc3ccccc3n2)cc1NC(=O)c1ccccc1S(=O)(=O)c1ccc([N+](=O)[O-])cc1 [CBK267690]  96.8476
22. COCC(=O)N[C@H]1C[C@H]2C(=O)Nc3ccc(-c4cccs4)cc3C(=O)N2C1 [CBK289358]  96.7524
23. Cc1nc2c(C(=O)NCCCOC(C)C)cnn2c(C)c1Cc1cccc(Cl)c1 [CBK162043]  96.377
24. CSCCC(=O)N1CCCC2(CCN(C(=O)c3cc(F)c(F)cc3F)C2)C1 (stereo not drawn) [CBK131557]  93.2069
25. O=C(C1CC=CCC1)N1CCC(c2[nH]ncc2-c2ccncc2)CC1 (stereo not drawn) [CBK284212]  92.2554
26. Cc1ccc(C(=O)N2CC=C(c3c[nH]c4ncccc34)CC2)cn1 [CBK297889]  91.6414
27. CCOC(=O)C1(C2CCCCC2)CCN(C(=O)C2COc3ccccc3O2)CC1 (stereo not drawn) [CBK136925]  91.4626
28. CN1CCN(S(=O)(=O)c2ccccc2Br)CC1 [CBK062435]  91.1426
29. COc1ccc(C(=O)N2CCC[C@H]3NC(=O)COc4ccccc4C(=O)N[C@@H]4CCOC[C@@H]4C/C=C/C[C@@H]32)cc1 [CBK292194]  89.0301
30. Cc1ccc(-c2cncc(N3CCCC3CO)n2)cc1C (stereo not drawn) [CBK065945]  87.2649
31. O=[N+]([O-])c1ccccc1CN1CCC(N2CCCCC2)CC1 [CBK261852]  86.3202
32. Cc1ccc2c(c1)C(=O)CC1(CCC3C(C(=O)NC4CCCC4)C31)O2 (stereo not drawn) [CBK282716]  86.3105
33. COc1ccc([N+](=O)[O-])cc1CSc1nnc(-c2ccco2)n1C [CBK269671]  81.5503
34. CSc1nsc(SCc2cnc(C)nc2N)n1 [CBK268337]  81.0847
35. CC(C)(C)OCc1[nH]nc(O)c1Cc1c(Cl)cccc1Cl [CBK089569]  80.7393
36. O=C(Cn1ncn2c(cc3ccsc32)c1=O)N1CCCCC1 [CBK284195]  76.2594
37. CN(C)c1ccc(-c2cncc(NCc3ccc4c(c3)OCO4)n2)cc1 [CBK037190]  74.276
38. O=C(NCCc1cccs1)Nc1ccc(Cl)cc1C(F)(F)F [CBK044825]  71.1309
39. Cn1cc(C(=O)NC2CCN(c3ccc(C#N)cc3F)CC2)cn1 [CBK304939]  69.0848
40. COCCCn1cnnc1C(C)NC(=O)N(C)Cc1nccs1 (stereo not drawn) [CBK306702]  66.8008
41. COc1ccc2sc(Br)c(C(=O)O)c2c1 [CBK019180]  59.2227
42. COc1ccccc1/C=C/C1=NN(c2ccc(F)cc2)C(c2ccccc2OC)C1 (stereo not drawn) [CBK262303]  57.8199
43. CN(CCC#N)C(=O)c1cc2cc(Cl)ccc2[nH]1 [CBK287956]  56.391
44. COc1ccc(Br)c(C(CO)N(C)C(=O)Cc2cnccc2C)c1 (stereo not drawn) [CBK306267]  56.0612
45. N#Cc1ccc(NC(=O)Nc2ccccc2)cc1 [CBK086045]  55.6296
46. CC(=O)Nc1ccc(S(=O)(=O)Nc2ccc(-c3cn4cccnc4n3)cc2)cc1 [CBK268671]  53.334
47. CC(C)Cn1cncc1CNS(=O)(=O)c1cccc(C(=O)N2CCC2)c1 [CBK307068]  50.441
48. CCc1ccc(C(O)CNC2CCN(c3nccs3)CC2)cc1 (stereo not drawn) [CBK304215]  49.9355
49. COc1ccc(NC(=O)c2cc(C(F)(F)F)cc(C(F)(F)F)c2)cn1 [CBK057634]  38.9249
50. CCOC(=O)N1CCN(Cc2ccc(OCc3cccnc3)cc2)CC1 [CBK305883]  25.3383
51. COc1cc(N)c2ncccc2c1 [CBK011972C]  0.8169

— PMC12040169 (PLOS Biology, 2025)
